In PubChem BioAssay AID1634 (National Center for Advancing Translational Sciences (NCATS), 2009):
About 150 (0.058%) of roughly 260,000 compounds were called active. Inconclusive means that the source gave no clear call. Such entries were picked first, then a sample of the others. Calls follow the shape of the dose curve; as a rule, active = well fitted inhibition curve with a large enough effect; inconclusive = small, poorly fitted or top-dose-only effect; inactive = no such curve, though single readings can be large or run the other way. Potencies of inconclusive entries are left out as doubtful fits.
Also: nearly all actives have a fitted effect of over 60% in size.
Potency is read from the fitted curve at half-maximal effect; tags tell the direction and shape of the fitted curve.

What follows are compounds tested against Pyruvate kinase PKM (Homo sapiens) (UniProt P14618) (assay: qHTS Assay for Inhibitors of Human Muscle isoform 2 Pyruvate Kinase). Details: purified PKM2, ATP generation, Kinase-Glo luminescence; series mostly up to 57.5 µM.
Chain of UniProt P14618 (P14618 whole entry, looked up, canonical isoform): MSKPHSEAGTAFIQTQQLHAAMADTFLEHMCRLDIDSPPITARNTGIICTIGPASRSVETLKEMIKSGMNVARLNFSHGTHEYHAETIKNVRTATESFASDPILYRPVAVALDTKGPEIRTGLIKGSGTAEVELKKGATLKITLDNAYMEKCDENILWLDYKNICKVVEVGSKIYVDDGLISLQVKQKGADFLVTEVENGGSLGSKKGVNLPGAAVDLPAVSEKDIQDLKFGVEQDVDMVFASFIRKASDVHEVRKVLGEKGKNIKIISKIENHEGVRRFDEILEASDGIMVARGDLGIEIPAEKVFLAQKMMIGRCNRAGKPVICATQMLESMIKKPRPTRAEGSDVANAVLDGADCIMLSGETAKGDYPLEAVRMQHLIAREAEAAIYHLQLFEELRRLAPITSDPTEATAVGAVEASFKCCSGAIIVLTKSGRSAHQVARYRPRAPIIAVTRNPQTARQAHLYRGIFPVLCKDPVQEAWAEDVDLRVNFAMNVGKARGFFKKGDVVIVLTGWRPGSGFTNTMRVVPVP
In short: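 Enzyme run at intermediate activity with final 0.1 mM ADP, 0.5 mM PEP (50 mM imidazole pH7.2, 50 mM KCl, 7 mM MgCl2), incubated 1 h at r.t. ATP formed read by Kinase-Glo luminescence, normalized to no-enzyme (full inhibition) and uninhibited wells.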
`O=c1cc(-c2ccc(O)cc2)oc2c(O)c(O)c(O)c(O)c12` was tested, and the Potency was inconclusive [falling, single point].
For `CC(=O)Nc1cccc(NC(=O)c2cc3ccccc3o2)c1`, the Potency was inconclusive [falling, partial curve, poor fit].
In the case of `O=C(Cn1sc2ccccc2c1=O)NC12CC3CC(CC(C3)C1)C2`, the Potency is reported as inconclusive [falling, single point].
With `O=C(NC(Cc1c[nH]c2ccccc12)C(=O)O)c1cccs1` (stereo not drawn) the Potency was inconclusive [falling, single point].
In the case of `CCC(C)Nc1nc(Cl)nc(N(C#N)CN2C(=O)c3ccccc3S2(=O)=O)n1` (stereo not drawn), the Potency is reported as inconclusive [falling, single point].
For `Cc1ncsc1C(=O)Nc1nc2c(s1)CCCC2`, the Potency was inconclusive [falling, partial curve].
In the case of `CCn1c2ccccc2c2cc(/C=N/O)ccc21`, the Potency is reported as inconclusive [falling, single point].
For `c1ccc2sc(SN3CCOCC3)nc2c1`, the Potency was inconclusive [falling, partial curve].
With `COc1ccc(-n2ncc3c(N4CCCCC4)ncnc32)cc1` the Potency was inconclusive [falling, single point].
For `CCn1c(/C=C/c2ccccc2)nc2ccccc21`, the Potency was inconclusive [falling, single point].
`O=C(NCc1ccccc1Cl)C1CCN(S(=O)(=O)c2cccs2)CC1` was tested, and the Potency was “inactive”.
With `O=C(/C=C/c1ccco1)NCC(=O)N/N=C/c1ccc(Cl)cc1` the Potency was inconclusive [falling, single point].
With `Nc1ccc(C(=O)Oc2ccc([N+](=O)[O-])cc2)cc1` the Potency was “inactive”.
`Cc1occc1C(=O)N/N=C/c1ccc2c(c1)OCO2` was tested, and the Potency was active: 5.62 µM.
For `Cc1ccc(S(=O)(=O)N2CCC(=O)N(CCOCc3ccc(Cl)cc3)CC2)cc1`, the Potency was “inactive”.
With `COc1cc(/C=N/Nc2nncn2/N=C/c2ccc(O)c(OC)c2)ccc1O` the Potency was inconclusive [falling, partial curve].
For `Cc1ccc(-n2nc(-c3ccco3)cc2C(=O)O)c(C)c1`, the Potency was “inactive”.
For `COc1ccccc1/C=C/C=N/N1CCN(Cc2ccc(Cl)cc2)CC1`, the Potency was inconclusive [falling, single point].
With `NS(=O)(=O)c1ccc(N=Nc2c[nH]c(=O)c(O)c2)cc1` the Potency was inconclusive [falling, single point].
With `CCCn1c(N)c(C(=O)CSc2nc(C)cs2)c(=O)n(C)c1=O` the Potency was “inactive”.
In the case of `CCOC(=O)N1CCN(c2cc(NCCC(=O)O)c3c4c(onc24)-c2ccccc2C3=O)CC1`, the Potency is reported as inconclusive [falling, single point].
In the case of `COc1cc(/C=N/NC(=O)C2c3ccccc3Oc3ccccc32)ccc1O`, the Potency is reported as “inactive”.
`COC(=O)c1sccc1NC(=O)Nc1cccc(F)c1` was tested, and the Potency was inconclusive [falling, single point].
For `CCC1CCCCN1CCCNC(=O)Cn1nc(-c2ccccc2)ccc1=O` (stereo not drawn), the Potency was “inactive”.
For `COC(=O)c1cc(O)cc(OC)c1Oc1cc(C)cc(O)c1C(=O)O`, the Potency was “inactive”.
For `C/C(=N\NC(=O)c1ccccc1F)c1ccccn1`, the Potency was inconclusive [falling, partial curve].
With `O=C1/C(=C/c2cccs2)COc2ccccc21` the Potency was inconclusive [falling, single point].
`CCOc1ccc2nc(NC(=O)c3ccoc3C)sc2c1` was tested, and the Potency was inconclusive [falling, single point].
With `COc1ccccc1NS(=O)(=O)c1cc(C(=O)NCCC(C)C)ccc1F` the Potency was “inactive”.
For `COC(=O)c1sc2nc(C)nc(SCC(=O)N3CCC(C(=O)O)CC3)c2c1C`, the Potency was inconclusive [falling, single point].
For `Cc1ccc(CNC(=O)[C@@H]2C[C@H]2[C@@H](NP(=O)(c2ccccc2)c2ccccc2)c2ccccc2)o1`, the Potency was “inactive”.
For `COc1ccccc1NC(=O)NCC(=O)Nc1c(C)cccc1C`, the Potency was inconclusive [falling, single point].
`COc1ccc(C(=O)Nc2ccccc2C(=O)N/N=C/c2ccc(O)c(OC)c2)cc1` was tested, and the Potency was inconclusive [falling, partial curve].
For `O=[N+]([O-])c1ccc(N2CCN(S(=O)(=O)c3ccccc3)CC2)cc1NCc1ccco1`, the Potency was “inactive”.
With `Cc1nc2cc(C(F)(F)F)ccc2n1C1CCN(C(=O)N2CCOCC2)CC1` the Potency was “inactive”.
In the case of `COc1ccc(-c2cc(C(=O)NCC3CCCO3)c3cc(C)ccc3n2)cc1` (stereo not drawn), the Potency is reported as inconclusive [falling, single point].
For `COc1ccc(-c2nnn(CC(=O)N(CCO)C(C(=O)NC3CCCC3)c3ccc(F)cc3)n2)cc1` (stereo not drawn), the Potency was “inactive”.
`COc1ccc(C(=O)Nc2ccccc2C(=O)Nc2cccnc2)cc1` was tested, and the Potency was inconclusive [falling, partial curve].
`Oc1ccc(/C=N/Nc2nn3cnnc3c3ccccc23)cc1` was tested, and the Potency was inconclusive [falling, single point].
`CCOC(=O)C1(Cc2ccccc2)CCCN(Cc2cnn(CC)c2)C1` (stereo not drawn) was tested, and the Potency was inconclusive [falling, single point].
In the case of `CCOC(=O)/C(=C/c1cn(C)c2ccccc12)NC(=O)c1ccccc1`, the Potency is reported as “inactive”.
`C[C@H](N)c1nnc(SCC(N)=O)o1` was tested, and the Potency was inconclusive [falling, partial curve].
`COc1cccc2cc(NC(=O)C3CCCCC3)c(=O)oc12` was tested, and the Potency was inconclusive [falling, partial curve].
With `C(=C\c1nc2ccccc2[nH]1)/c1ccccc1` the Potency was active: 14.1 µM.
In the case of `COc1c(C)cc(Br)cc1C(=O)Nc1ccccc1C`, the Potency is reported as “inactive”.
`N/C(=N\OC(=O)/C=C/c1ccccc1)c1ccccn1` was tested, and the Potency was inconclusive [falling, partial curve].
For `O=C1C2C3C=CC(CNS(=O)(=O)c4ccccc4)(O3)C2C(=O)N1c1ccc(Cl)cc1` (stereo not drawn), the Potency was “inactive”.
`CCC(/C=C1\Sc2ccc(OC)cc2N1CCO)=C\c1sc2ccc(OC)cc2[n+]1CCO` was tested, and the Potency was inconclusive [falling, single point].
